The results in this text go back to publication PMC3419181.

These are yes or no findings as the source states them, for the method shown. For some assays here: In cells and extracts the contact can be indirect. Some entries that bind do so weakly or less than the wild type. For some assays here: Tags and fused reporters may be left off the sequences shown.

For test [1], the target named is TNIK (endogenous, HEK293) (human (endogenous in HEK293)) (UniProt Q9UKE5). As to the kind of experiment: co-IP; HEK293 cells transfected with LMP1 constructs or LMP1-TNFR1 chimeras; endogenous TNIK immunoprecipitated with anti-TNIK; immunoblot with anti-LMP1 (CS1-4) or anti-HA (3F10). In general terms: A western blot detects proteins with antibodies after separation by electrophoresis.

Test [2] deals with HA-TNIK (human) (UniProt Q9UKE5). Put plainly: co-IP; HEK293 cells co-transfected with tagged TNIK and the tagged partner, with pSV-LMP1 co-expressed; tagged TNIK immunoprecipitated by anti-HA (12CA5) or anti-Flag (6F7); immunoblot.
Test [3] has the same target. Put plainly: co-IP; HEK293 cells co-transfected with tagged TNIK (or HA-TNIK domain constructs) and the tagged partner, without LMP1; tagged TNIK immunoprecipitated by anti-HA (12CA5) or anti-Flag (6F7); immunoblot.
In test [4] the target is TRAF2- and Nck-interacting kinase (TNIK), endogenous in lymphoblastoid cells (human (endogenous in LCL 721 and LCL-TEV.5)) (UniProt Q9UKE5). Put plainly: co-IP; endogenous proteins from LCL 721 lysates (3 to 5 mg total protein); immunoprecipitation with anti-TNIK or anti-LMP1 (1G6-3) coupled to protein-G-sepharose; immunoblot.
In a further test the target is T1, GST-TNIK-KD(KM) (human) (UniProt Q9UKE5).
T1 sequence: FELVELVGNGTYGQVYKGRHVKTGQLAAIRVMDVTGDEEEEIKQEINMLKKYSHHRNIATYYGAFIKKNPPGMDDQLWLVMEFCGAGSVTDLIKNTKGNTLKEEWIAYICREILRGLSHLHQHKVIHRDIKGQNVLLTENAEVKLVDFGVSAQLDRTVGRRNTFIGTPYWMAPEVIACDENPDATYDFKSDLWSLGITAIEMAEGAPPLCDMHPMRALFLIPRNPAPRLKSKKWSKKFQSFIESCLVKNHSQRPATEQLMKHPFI
Put plainly: pull-down; 1 µg His-TRAF incubated 1 h at 4°C in 500 µl TBS pH 7.4, 0.1% BSA, 0.5% Tween 20 with GST-TNIK domains or GST immobilised on glutathione sepharose; bound TRAF detected by immunoblot; both purified.

Test [5] addresses Flag-TNIK (HEK293) (human) (UniProt Q9UKE5). Put plainly: co-IP; HEK293 cells co-transfected with tagged TNIK and the tagged partner, with pSV-LMP1 co-expressed; tagged TNIK immunoprecipitated by anti-HA (12CA5) or anti-Flag (6F7); immunoblot.
The target is the same in test [6]. Put plainly: co-IP; HEK293 cells co-transfected with tagged TNIK (or HA-TNIK domain constructs) and the tagged partner, without LMP1; tagged TNIK immunoprecipitated by anti-HA (12CA5) or anti-Flag (6F7); immunoblot.

For the molecule “HA-LMP1Δ371–386 (from UniProt P03230 1-370) (domain or fragment)”, the binding result in test [1] is on record as “no binding”.

B1: Flag-TAK1 (protein, UniProt O43318 1-606)
chain: MSTASAASSSSSSSAGEMIEAPSQVLNFEEIDYKEIEVEEVVGRGAFGVVCKAKWRAKDVAIKQIESESERKAFIVELRQLSRVNHPNIVKLYGACLNPVCLVMEYAEGGSLYNVLHGAEPLPYYTAAHAMSWCLQCSQGVAYLHSMQPKALIHRDLKPPNLLLVAGGTVLKICDFGTACDIQTHMTNNKGSAAWMAPEVFEGSNYSEKCDVFSWGIILWEVITRRKPFDEIGGPAFRIMWAVHNGTRPPLIKNLPKPIESLMTRCWSKDPSQRPSMEEIVKIMTHLMRYFPGADEPLQYPCQYSDEGQSNSATSTGSFMDIASTNTSNKSDTNMEQVPATNDTIKRLESKLLKNQAKQQSESGRLSLGASRGSSVESLPPTSEGKRMSADMSEIEARIAATTAYSKPKRGHRKTASFGNILDVPEIVISGNGQPRRRSIQDLTVTGTEPGQVSSRSSSPSVRMITTSGPTSEKPTRSHPWTPDDSTDTNGSDNSIPMAYLTLDHQLQPLAPCPNSKESMAVFEQHCKMAQEYMKVQTEIALLLQRKQELVAELDQDEKDQQNTSRLVQEHKKLLDENKSLSTYYQQCKKQLEVIRSQQQKRQGTS
Consider B1, for which the binding entry with HA-TNIK (human) [2] and with HA-TNIK (human) [3] was “binds” each time.

B2: TAK1 (endogenous, LCL 721) (protein, UniProt O43318 1-606)
chain: MSTASAASSSSSSSAGEMIEAPSQVLNFEEIDYKEIEVEEVVGRGAFGVVCKAKWRAKDVAIKQIESESERKAFIVELRQLSRVNHPNIVKLYGACLNPVCLVMEYAEGGSLYNVLHGAEPLPYYTAAHAMSWCLQCSQGVAYLHSMQPKALIHRDLKPPNLLLVAGGTVLKICDFGTACDIQTHMTNNKGSAAWMAPEVFEGSNYSEKCDVFSWGIILWEVITRRKPFDEIGGPAFRIMWAVHNGTRPPLIKNLPKPIESLMTRCWSKDPSQRPSMEEIVKIMTHLMRYFPGADEPLQYPCQYSDEGQSNSATSTGSFMDIASTNTSNKSDTNMEQVPATNDTIKRLESKLLKNQAKQQSESGRLSLGASRGSSVESLPPTSEGKRMSADMSEIEARIAATTAYSKPKRGHRKTASFGNILDVPEIVISGNGQPRRRSIQDLTVTGTEPGQVSSRSSSPSVRMITTSGPTSEKPTRSHPWTPDDSTDTNGSDNSIPMAYLTLDHQLQPLAPCPNSKESMAVFEQHCKMAQEYMKVQTEIALLLQRKQELVAELDQDEKDQQNTSRLVQEHKKLLDENKSLSTYYQQCKKQLEVIRSQQQKRQGTS
As to B2, in test [4], the binding result is reported as “binds”.

B3: His-TRAF2(311–501) (domain or fragment, UniProt Q12933 311-501)
chain: QDKIEALSSKVQQLERSIGLKDLAMADLEQKVLEMEASTYDGVFIWKISDFARKRQEAVAGRIPAIFSPAFYTSRYGYKMCLRIYLNGDGTGRGTHLSLFFVVMKGPNDALLRWPFNQKVTLMLLDQNNREHVIDAFRPDVTSSSFQRPVNDMNIASGCPLFCPVSKMEAKNSYVRDDAIFIKAIVDLTGL
Take B3: the binding result in the test with GST-TNIK-KD(KM) (human) was “no binding (tested: 1 µg of His-TRAF2(311–501) in 500 µl)”.

B4: HA-TAB2 (protein, UniProt Q9NYJ8 1-693)
chain: MAQGSHQIDFQVLHDLRQKFPEVPEVVVSRCMLQNNNNLDACCAVLSQESTRYLYGEGDLNFSDDSGISGLRNHMTSLNLDLQSQNIYHHGREGSRMNGSRTLTHSISDGQLQGGQSNSELFQQEPQTAPAQVPQGFNVFGMSSSSGASNSAPHLGFHLGSKGTSSLSQQTPRFNPIMVTLAPNIQTGRNTPTSLHIHGVPPPVLNSPQGNSIYIRPYITTPGGTTRQTQQHSGWVSQFNPMNPQQVYQPSQPGPWTTCPASNPLSHTSSQQPNQQGHQTSHVYMPISSPTTSQPPTIHSSGSSQSSAHSQYNIQNISTGPRKNQIEIKLEPPQRNNSSKLRSSGPRTSSTSSSVNSQTLNRNQPTVYIAASPPNTDELMSRSQPKVYISANAATGDEQVMRNQPTLFISTNSGASAASRNMSGQVSMGPAFIHHHPPKSRAIGNNSATSPRVVVTQPNTKYTFKITVSPNKPPAVSPGVVSPTFELTNLLNHPDHYVETENIQHLTDPTLAHVDRISETRKLSMGSDDAAYTQALLVHQKARMERLQRELEIQKKKLDKLKSEVNEMENNLTRRRLKRSNSISQIPSLEEMQQLRSCNRQLQIDIDCLTKEIDLFQARGPHFNPSAIHNFYDNIGFVGPVPPKPKDQRSIIKTPKTQDTEDDEGAQWNCTACTFLNHPALIRCEQCEMPRHF
On to B4, for which the binding result in test [5] is reported as “binds”; in test [6], “binds weakly”.

B5: TAB2 (endogenous, LCL 721) (protein, UniProt Q9NYJ8 1-693)
chain: MAQGSHQIDFQVLHDLRQKFPEVPEVVVSRCMLQNNNNLDACCAVLSQESTRYLYGEGDLNFSDDSGISGLRNHMTSLNLDLQSQNIYHHGREGSRMNGSRTLTHSISDGQLQGGQSNSELFQQEPQTAPAQVPQGFNVFGMSSSSGASNSAPHLGFHLGSKGTSSLSQQTPRFNPIMVTLAPNIQTGRNTPTSLHIHGVPPPVLNSPQGNSIYIRPYITTPGGTTRQTQQHSGWVSQFNPMNPQQVYQPSQPGPWTTCPASNPLSHTSSQQPNQQGHQTSHVYMPISSPTTSQPPTIHSSGSSQSSAHSQYNIQNISTGPRKNQIEIKLEPPQRNNSSKLRSSGPRTSSTSSSVNSQTLNRNQPTVYIAASPPNTDELMSRSQPKVYISANAATGDEQVMRNQPTLFISTNSGASAASRNMSGQVSMGPAFIHHHPPKSRAIGNNSATSPRVVVTQPNTKYTFKITVSPNKPPAVSPGVVSPTFELTNLLNHPDHYVETENIQHLTDPTLAHVDRISETRKLSMGSDDAAYTQALLVHQKARMERLQRELEIQKKKLDKLKSEVNEMENNLTRRRLKRSNSISQIPSLEEMQQLRSCNRQLQIDIDCLTKEIDLFQARGPHFNPSAIHNFYDNIGFVGPVPPKPKDQRSIIKTPKTQDTEDDEGAQWNCTACTFLNHPALIRCEQCEMPRHF
As to B5, the binding result in test [4] is “binds”.

B6: Flag-IKKβ (protein, UniProt O14920 1-756)
chain: MSWSPSLTTQTCGAWEMKERLGTGGFGNVIRWHNQETGEQIAIKQCRQELSPRNRERWCLEIQIMRRLTHPNVVAARDVPEGMQNLAPNDLPLLAMEYCQGGDLRKYLNQFENCCGLREGAILTLLSDIASALRYLHENRIIHRDLKPENIVLQQGEQRLIHKIIDLGYAKELDQGSLCTSFVGTLQYLAPELLEQQKYTVTVDYWSFGTLAFECITGFRPFLPNWQPVQWHSKVRQKSEVDIVVSEDLNGTVKFSSSLPYPNNLNSVLAERLEKWLQLMLMWHPRQRGTDPTYGPNGCFKALDDILNLKLVHILNMVTGTIHTYPVTEDESLQSLKARIQQDTGIPEEDQELLQEAGLALIPDKPATQCISDGKLNEGHTLDMDLVFLFDNSKITYETQISPRPQPESVSCILQEPKRNLAFFQLRKVWGQVWHSIQTLKEDCNRLQQGQRAAMMNLLRNNSCLSKMKNSMASMSQQLKAKLDFFKTSIQIDLEKYSEQTEFGITSDKLLLAWREMEQAVELCGRENEVKLLVERMMALQTDIVDLQRSPMGRKQGGTLDDLEEQARELYRRLREKPRDQRTEGDSQEMVRLLLQAIQSFEKKVRVIYTQLSKTVVCKQKALELLPKVEEVVSLMNEDEKTVVRLQEKRQKELWNLLKIACSKVRGPVSGSPDSMNASRLSQPGQLMSQPSTASNSLPEPAKKSEELVAEAHNLCTLLENAIQDTVREQDQSFTALDWSWLQTEEEEHSCLEQAS
In the case of B6, in the test with HA-TNIK (human) [2], the binding entry is “binds”.

B7: IKKβ (endogenous, LCL 721) (protein, UniProt O14920 1-756)
chain: MSWSPSLTTQTCGAWEMKERLGTGGFGNVIRWHNQETGEQIAIKQCRQELSPRNRERWCLEIQIMRRLTHPNVVAARDVPEGMQNLAPNDLPLLAMEYCQGGDLRKYLNQFENCCGLREGAILTLLSDIASALRYLHENRIIHRDLKPENIVLQQGEQRLIHKIIDLGYAKELDQGSLCTSFVGTLQYLAPELLEQQKYTVTVDYWSFGTLAFECITGFRPFLPNWQPVQWHSKVRQKSEVDIVVSEDLNGTVKFSSSLPYPNNLNSVLAERLEKWLQLMLMWHPRQRGTDPTYGPNGCFKALDDILNLKLVHILNMVTGTIHTYPVTEDESLQSLKARIQQDTGIPEEDQELLQEAGLALIPDKPATQCISDGKLNEGHTLDMDLVFLFDNSKITYETQISPRPQPESVSCILQEPKRNLAFFQLRKVWGQVWHSIQTLKEDCNRLQQGQRAAMMNLLRNNSCLSKMKNSMASMSQQLKAKLDFFKTSIQIDLEKYSEQTEFGITSDKLLLAWREMEQAVELCGRENEVKLLVERMMALQTDIVDLQRSPMGRKQGGTLDDLEEQARELYRRLREKPRDQRTEGDSQEMVRLLLQAIQSFEKKVRVIYTQLSKTVVCKQKALELLPKVEEVVSLMNEDEKTVVRLQEKRQKELWNLLKIACSKVRGPVSGSPDSMNASRLSQPGQLMSQPSTASNSLPEPAKKSEELVAEAHNLCTLLENAIQDTVREQDQSFTALDWSWLQTEEEEHSCLEQAS
Take B7: the binding entry in test [4] was “binds”.

B8: His-TRAF6(310–522) (domain or fragment, UniProt Q9Y4K3 310-522)
chain: DHQIRELTAKMETQSMYVSELKRTIRTLEDKVAEIEAQQCNGIYIWKIGNFGMHLKCQEEEKPVVIHSPGFYTGKPGYKLCMRLHLQLPTAQRCANYISLFVHTMQGEYDSHLPWPFQGTIRLTILDQSEAPVRQNHEEIMDAKPELLAFQRPTIPRNPKGFGYVTFMHLEALRQRTFIKDDTLLVRCEVSTRFDMGSLRREGFQPRSTDAGV
Take B8: in the test with GST-TNIK-KD(KM) (human), the binding entry is reported as “no binding (tested: 1 µg of His-TRAF6(310–522) in 500 µl)”.
